The values below come from the supplement of paper PMC10338343.

The experiment has as its system MIWI (PIWIL1) piRISC loaded with L1MC piRNA (30 nt). Put plainly: pre-steady-state target cleavage rate (min^-1); MIWI and MILI are mouse PIWI proteins and EfPiwi is from a freshwater sponge; tags in brackets are library labels; higher = faster piRNA-guided slicing of the target. The note with it: guide: L1MC piRNA 5'p-UAACUAAAUACUAUGCAAGCUGUAGGUCCU
The essentials:
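A transcribed, DNA-blocked target RNA library (0.1 nM) and 1 nM active affinity-purified piRISC bearing one synthetic guide were incubated in HEPES–potassium acetate buffer at 33 °C for 0–8 or 0–960 min, either with or without 500 nM GTSF1 partner protein. Uncleaved targets were sequenced, normalised to depth and to weakly complementary targets, and pooled over three trials, with k3 capped at 0.0001 min^-1. The pre-steady-state cleavage rate was derived with a burst-and-steady-state fit.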

[1] abbreviates: auxiliary factor: 500 nM mouse GTSF1.
Setting [2] is: auxiliary factor: none (no GTSF1).

± gives the standard deviation. Only a part is listed here, and it is no random draw.

For the sequence UCCUGGAUCAGCUUGCAUAGUUUUUAGAAA, the “pre-steady-state target cleavage rate” value by setting is: under setting [1], 0.0961 ± 0.025; under setting [2], 0.00604 ± 0.0031.
In the case of UCCACCUACAGCUUGCUUAGUAUUUAGUAA, the “pre-steady-state target cleavage rate” value runs as follows: under setting [1], 0.484 ± 0.044; under setting [2], 0.0103 ± 0.0023.
The matching figures for UCCACCUACACCUUGCAUACUAUUUAGUUA: 0.227 ± 0.033 and 0.0219 ± 0.0031.
The matching figures for AGGACCUACAGCUUCCAUAGUAUUUAGUUA: 0.322 ± 0.066 and 0.00787 ± 0.0039.
The matching figures for UCGACCUACAGCUUGCAUUGAAUUUAGUUA: 0.251 ± 0.021 and 0.00707 ± 0.0023.
UCCUGGUACAGCUUGCAUAGUAUUAACUUA: the “pre-steady-state target cleavage rate” value is, setting by setting: under setting [1], 0.114 ± 0.028; under setting [2], 0.00581 ± 0.0019.
The matching figures for UCCUCCUACAGCUUGCAUAGUAAUUAGUAA: 0.347 ± 0.039 and 0.0074 ± 0.0022.
The matching figures for UCGACCUACAGGUUGCAUAGUAUUUAGUUA: 1.14 ± 0.053 and 0.0468 ± 0.0088.
For UCCACCUACAGGUUGCAUAGUUUUUAGUUA, in that order: 0.305 ± 0.037 and 0.0132 ± 0.0026.
Regarding UGGUGCUACAGCUUGCAUAGUAUUUAGUUA, the “pre-steady-state target cleavage rate” value is 0.988 ± 0.079 under setting [1] and 0.0764 ± 0.017 under setting [2].
The matching figures for UCCUCCUACAGCUAGCAUAGUAUAUAGUUA: 0.365 ± 0.04 and 0.0079 ± 0.0024.
For UCCACAUACAGCUUGCAUAGUAUUUAGUUA, in that order: 1.24 ± 0.062 and 0.0589 ± 0.0096.
The matching figures for UCCUGGAUCUGCUUGCAUUGUAUUUAGUUA: 0.228 ± 0.037 and 0.0147 ± 0.0049.
As to UCCACCUACAGCUUGCAUAGUAUUAAGUUA, the “pre-steady-state target cleavage rate” value is 0.648 ± 0.051 under setting [1] and 0.0198 ± 0.0046 under setting [2].
The matching figures for AGCACCUACAGCUUGCAUAGUUUUUAGUUA: 0.591 ± 0.09 and 0.171 ± 0.054.
As to UCCACCUACAGCUUGCAUAUAUUUAGUUA, the “pre-steady-state target cleavage rate” value is, setting by setting: under setting [1], 0.324 ± 0.038; under setting [2], 0.00241 ± 0.0021.
The matching figures for UCCUGGAUCAGCUUGCAUACUAAUUAGUUA: 0.0563 ± 0.0091 and 0.00771 ± 0.0023.
For UCCUGGAUCACCUUGCAAAGUAUUUAGUUA, in that order: 0.183 ± 0.022 and 0.00642 ± 0.0025.
For UCCUGGUACAGCUUGCAUACUAUUUAGUAA, the “pre-steady-state target cleavage rate” value by setting is: under setting [1], 0.14 ± 0.046; under setting [2], 0.00856 ± 0.0034.
For UCGACGUACAGCUUGCAUAGAAUUUAGUUA, in that order: 0.406 ± 0.019 and 0.0269 ± 0.0061.
UCCUCCUACUGCUUGCAUAGUAUAUAGUUA: the “pre-steady-state target cleavage rate” value by setting is: under setting [1], 0.472 ± 0.026; under setting [2], 0.0228 ± 0.0045.
In the case of UGGACGUACAGCUUGCAUAGUAUAUAGUUA, the “pre-steady-state target cleavage rate” value is, setting by setting: under setting [1], 0.673 ± 0.049; under setting [2], 0.0417 ± 0.0081.
For UGGACCUUGAGCUUGCAUAGUAUUUAGUAA, in that order: 0.766 ± 0.065 and 0.0205 ± 0.0051.
Take UCCUGCUUGAGCUUGCAUAGUAUUUACAAA: the “pre-steady-state target cleavage rate” value runs as follows: under setting [1], 0.175 ± 0.031; under setting [2], 0.00374 ± 0.0022.
With UCGACCUACAGGAAGCAUAGUAUUUAGUAA, the “pre-steady-state target cleavage rate” value by setting is: under setting [1], 0.711 ± 0.065; under setting [2], 0.00296 ± 0.0024.
The matching figures for UCCUCCUAGAGCUUGCAUAGUAUUUAGUAA: 0.602 ± 0.049 and 0.0152 ± 0.0033.
For UCCUGGAUCAGCUUGCAAAGAAUUUAGUUA, in that order: 0.113 ± 0.014 and 0.0101 ± 0.0046.
For UGGACCUACAGCUUGGAUAGUAUUUACAAA, in that order: 0.0553 ± 0.011 and 0.00372 ± 0.0023.
For the sequence UCCACCUAGAGCUUGCAUAGUAUAUAGUUA, the “pre-steady-state target cleavage rate” value was 0.658 ± 0.069 under setting [1] and 0.0203 ± 0.0052 under setting [2].
As for UCCUCCUACAGCUUGCAUAGUUUUUAGAUA, the “pre-steady-state target cleavage rate” value runs as follows: under setting [1], 0.228 ± 0.036; under setting [2], 0.00676 ± 0.0025.
The matching figures for UGGACCUACAGCUUGCAUAGUUAUUUAGUUA: 0.0473 ± 0.0076 and 0.00533 ± 0.0021.
On to UGGACCUACGGCUUGCAUAGUAUUUAGUUA, for which the “pre-steady-state target cleavage rate” value was 1.44 ± 0.1 under setting [1] and 0.0662 ± 0.013 under setting [2].
For UGGACCUACAGCUUGCAUAGUUUUUAGAUA, in that order: 0.118 ± 0.013 and 0.0104 ± 0.0032.
For AGGACCUACAGCUUGCAUAGUAUUAAGAUA, in that order: 0.374 ± 0.057 and 0.00793 ± 0.003.
